# Assay results taken from the supplement of paper PMC11417369.
# The other results are listed elsewhere or left out.
# Test system: PF3D7_0420300 AP2 domain 1 (GST-tagged)
# Test: gcPBM binding intensity (ln(normalized median fluorescence intensity)); higher = stronger DNA binding
# Outline: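 The binding buffer was 1× PBS containing 1% milk, 0.2 mg/ml BSA, 0.5% salmon testes DNA and 0.03% Triton X-100. In it, GST-tagged P. falciparum DNA-binding domains expressed in E. coli were applied for 1 h to an Agilent 4 × 180k array of primer-extended double-stranded 36-bp intergenic genomic probes plus negative controls. Binding intensity, read with Alexa488 anti-GST antibody and a 488 nm scan, is the highest Masliner-normalised natural-log median intensity across replicate spots of either probe orientation.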
row,Sequence,gcPBM binding intensity (ln)
1,CCACGTATACGATGCACACGTATGCTTTATATATAG [CACACA_site4108],9.36
2,ATTAAATCCGCACGCACACACACATATTAAGAAAAA [CACACA_site6062],9.76
3,GTTGAAAAAAATATATGTACGTATATATGTATGTAT [XGTACX_site8201],9.43
4,TTGGTAAATATATTTTGAATATAAGAAATATAGACG [CACACA_negctrl_site1634],9.16
5,ATTATTACTATATGTGTACACATCAACTGGTTTGAT [CACACA_site5563],9.39
6,TATATATATAACAGAATGCACTTTATATGTTCATAT [GTGCAC_site9880],9.23
7,TATACGTATACCTATACACACATATATTTATTTATA [CACACA_site6716],9.47
8,GATATCCTTATATTTGCACACACACCCAATAAAATG [CACACA_site1028],9.99
9,TAATAAATTCATAATTGTACATTGAAGTATTATGCA [XGTACX_site5121],9.05
10,TTTTTTTATTTTGTATGTACATATCATTTGATATTC [XGTACX_site8449],9.37
11,CACTTAAAAAGCTAACGTACAAATACACATATATAA [XGTACX_site1851],9.22
12,AATATATATATAAATAATATACCTATATATTTTTTG [XGTACX_negctrl_site407],9.08
13,AAAAACAATTTAATCACACATATATGTCACAAAGAT [CACACA_site5043],9.58
14,ATATTAAATATTATCACACACATAATTATTTCCATA [CACACA_site2334],9.62
15,ATATATATATATATATGTACATACATATTGTTTGGT [XGTACX_site2284],9.31
16,ATATAATAATATGGTTGTACATAAATAACACATGAA [XGTACX_site6592],9.49
17,CAAAATATTTTTTCCTGTACATAATTCCTATTTCAC [XGTACX_site3590],9.4
18,ATGATTATACAAAATATACACACGTGTAGACAAATA [CACACA_site1175],9.57
19,TAATAATAGAAACACACACACATAGACATATATATA [CACACA_site1307],10.1
20,TATTTTCAAAATGTTGTACACACAAAAAAAAAAAAA [CACACA_site8437],9.25
21,ATATACTTTTCAATGTGTACTTATGAATATATATGT [XGTACX_site7972],9.36
22,TATTTATAAATATGTGTGCACAATTTATTTTATAAT,9.17
23,TTTTTTTTATATATCTGTACATATATATATATATAT [XGTACX_site8280],9.28

row,Sequence,gcPBM binding intensity (ln)
1,TTATTTCTAACATGATGTACTTTTATATTATATAAT [XGTACX_site3574],9.26
2,TTTTAACAAAACTAAATAATCATATATATAAGATAT [GTGCAC_negctrl_site298],9.01
3,CATTTCTATATAAGCACACACGTGGAATTTTTTTTT [CACACA_site5537],9.39
4,ATTATTTGAACAACAAAAAAAAAGAAAAGAAAAGAA [CACACA_negctrl_site1031],9.33
5,TCATATTATAAATAAATAAATAAATATATATATATA [CACACA_negctrl_site577],8.97
6,AAATCGTAATATATTTGTACTTATTTGAAAAATCCA [XGTACX_site8141],9
7,TTTTTTTTCTTTTTTTTAAGAAATAAATAAATAATT [XGTACX_negctrl_site137],8.7
8,TATATTTCATTATATTGTACAAAATATATATATTAT [XGTACX_site4644],9.04
9,CATTATATATATTACTAAAAATTTTACCCCTTAGCT [CACACA_negctrl_site302],9.17
10,ATACATGAATAAATATGTACACATATAAAAACATAT [XGTACX_site2740],9.59
11,ATGTATATAAATATACGTACATAAATATAAGTATAG [XGTACX_site7155],9.41
12,TTTTTTCTTTTTATGTGTACTTATTTTATTTAATAA [XGTACX_site1080],9.33
13,AAAAAAGAAAAAAAGTGTACAATATTTATTACATAT [XGTACX_site2277],9.35
14,TTTGTGTATATAACAGTGCAATATTATAAATATAAA [GTGCAC_site9750],9.16
15,AACCCAAAATAATTATGTACATATTTTTAAATATAT [XGTACX_site6487],9.33
16,ATAATCCTTGGACACACACACACACTAGTAAATAAA [CACACA_site4423],10.1
17,GCAAAGCACAAATATGCATGTAGATATAGAATAATG [TGCATGCA_site382],9.13
18,ACTTAATTTTTTTTATGTACTTATTTAAAAAATTTT [XGTACX_site2712],9.14
19,CTTAAAGGGAAAAATACACACATATAAATATTATGT [CACACA_site2225],9.47
20,TTAGTAGTATTATGTAGTACATAATTATCATATCAT [XGTACX_site817],9.13
21,TAATTATTTTTATATTGTACAATATGTAAATATATA [XGTACX_site592],8.9
22,TTTTTTGAATTTAAAAGTACAGGCTTTTACCAAATA [XGTACX_site1356],8.76
23,AATTAAAAAAAAAAAAAAAAAAAAAAATGAAAAAAA [CACACA_negctrl_site1073],9.02

row,Sequence,gcPBM binding intensity (ln)
1,ATAAATAAATAAATCTGTACATATGTATATGTATAT [XGTACX_site4537],9.27
2,AAAAAAAAAAAAAAAAGTACATACAACATTATGAAA [XGTACX_site207],9.35
3,ATAATAACTTGTAAGGTGCATTTTATGTTTTCTTAA,9.26
4,AGAAATAATATTATTCAAGTATTTATTTAATTTTCA [GTGCAC_negctrl_site475],8.91
5,CTCATCCTTACATACACACACATATATTTATTTATA [CACACA_site6202],10
6,AAATTATAGAATCATTGTACTTTTTTTTTTTTTTTT [XGTACX_site1280],9.14
7,TATGCTTCAAAATTGTGTACATATATAATATATTAT [XGTACX_site6760],9.26
8,TTAATAATTATAACATGTACATACACTAAATTTTTT [XGTACX_site8953],9.15
9,CAAATATATATTTATTGTACATATTGTTTATATGGT [XGTACX_site5246],9.18
10,TATAAAATTATGTGTACACAAATATAACTTTTCTTT [CACACA_site5554],9.16
11,CATCCAAAAATATTATGTACTAAATTTGGATGTATT [XGTACX_site3954],9.15
12,AAAATATTTCTTCTTTGTACTTATATATATTTAATT [XGTACX_site5446],9.31
13,TATTCATATTCCAAGTGTACACATAAATCCCTAATA [XGTACX_site4131],9.26
14,TACTTACCTATAATAACACACAAGAAAAAAATAAAA [CACACA_site6616],9.65
15,AAATAATATCATAAATGTACATATATCATATTATTA [XGTACX_site5372],9.19
16,CAAAATGTTAAAGATACACACCTAACAAACACAAAA [CACACA_site4685],9.65
17,AATTCTTTACTATTCACACATATAAATATTCACTTT [CACACA_site4886],9.57
18,AAATCCATATAGGATTGTACATATATTATATATATA [XGTACX_site8818],9.27
19,AAAAATATTTAAAATACACACATATCTATAATATAT [CACACA_site7032],9.52
20,GTGGTATAAATTTTATGTACTTAATAACTCATTAAT [XGTACX_site5555],9.28
21,ACATATATATTTATATGTACATATATTTATATATAT [XGTACX_site7469],9.11
22,AAAAAAAAAAAACACACACACACAAATACATACACA [CACACA_site706],10.2
23,ACAAAAATGAGATGGTGTACGCACAAATAAATAATA [XGTACX_site5221],9.59

row,Sequence,gcPBM binding intensity (ln)
1,ATATAGTTTCACATGTGTACATAAAAATACACTTGT [XGTACX_site3339],9.08
2,AAATATTTATATGTTACACACTGTTTATAATTTTCT [CACACA_site4868],9.58
3,CAATGTATTTAGAATACATGCATATTTTCATAATGT [TGCATGCA_site221],9.13
4,AATTATGCACAAATCACACATATAAAATAAAAAGTG [CACACA_site4474],9.52
5,TTTTTTATTTAAAGTAGTACTTTTTAGAAAACAAAA [XGTACX_site6759],8.59
6,ATTCTAAATATGTATATACACACTTTTAATATTCAT [CACACA_site4118],9.47
7,TTTATGAAACAGTGCACACATAAAAATAAATACATA [CACACA_site5631],9.55
8,TTATTTTAAATTAACACATGCATAATATATGTATAT [TGCATGCA_site597],9.03
9,TTTTCAAAAATATACACACACATAAATATATGTATA [CACACA_site777],9.54
10,AAAAAAATTTTAAAATGTACAAATTTTAATATATAT [XGTACX_site7628],9.02
11,GAAAATTCATAAAAATGTACTTATTATATTATTTAT [XGTACX_site2169],9.14
12,GATATATAACTTTTAACACACAAAAAAAAAAAAAAT [CACACA_site7653],9.58
13,TTATGAATATTGATGTATAAAAAAATATATATGTTA [XGTACX_negctrl_site390],9.06
14,AAAGGTTTGCGTTGTGTGCACAAAATAAATATATAA,9.43
15,TAAAATTATGTAATAACACACATATACAATACATAT [CACACA_site1236],9.65
16,AACACCAAACTAAATGTACACACATACATAAATATA [CACACA_site8298],9.75
17,AATATAAACACAAACACACACATATATATATATATA [CACACA_site4307],9.68
18,TTATTTAAACAAATCACACACAAATATAAATACATA [CACACA_site5158],9.75
19,CCATGTCAAACATTTGCACACAAAAAAATAAAAATT [CACACA_site4546],9.4
20,AGGTTGAATATATATTTGTGATTATATTATTTTATT [CACACA_negctrl_site778],9.5
